From the supplement of paper PMC11417369
Some of the results follow.

test system: PfHDP1 homeodomain (GST-tagged); assay: gcPBM binding intensity (ln(normalized median fluorescence intensity)); higher = stronger DNA binding
Method in brief: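 After 1 h on an Agilent 4 × 180k array of primer-extended double-stranded 36-bp intergenic genomic probes and negative controls, bound GST-tagged P. falciparum DNA-binding domains were detected with Alexa488 anti-GST antibody and scanned at 488 nm. The domains had been expressed in E. coli, and binding took place in 1× PBS with 1% milk, 0.2 mg/ml BSA, 0.5% salmon testes DNA and 0.03% Triton X-100. Binding intensity is the highest Masliner-normalised natural-log median intensity across replicate spots of either probe orientation.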

Row | Sequence | gcPBM binding intensity (ln)
1 | TTTTCAAAAATATACACACACATAAATATAGGTATA [CACACA_site6506] | 6.41
2 | AGATACTTTCCTCAAACACACAAAACTATACAACAA [CACACA_site1474] | 6.79
3 | GTTAGCTCGTTCGGAGCACACACATATATATATATA [CACACA_site8595] | 9.24
4 | ATATTCTTCTAAAGGCGTACATCTACATTTATGAAA [XGTACX_site2145] | 6.28
5 | ATTCAGTTCTATAATACACACATATATTGACATTAT [CACACA_site7309] | 7.05
6 | TTTTTTCTTTCTTTCAAACACACATTAATTTTATTC [CACACA_site2733] | 6.56
7 | TTTTTTTTTTTTTGGTGTACTTTTTTTAGAACGCAA [XGTACX_site4207] | 6.26
8 | AAAAATGAAAGGTGTACACATACAAACATAGAAAGA [CACACA_site5020] | 7.92
9 | AAAATTTATATAGGCACACAAATAAATTAATACATA [CACACA_site1418] | 6.57
10 | ATATTAGAAATATGAATAGAAAGAATATATAAGTAT [CACACA_negctrl_site682] | 6.91
11 | ATTCTACACCCACATACACACATATATATATATATA [CACACA_site3426] | 9.38
12 | TGTTCAAATTTATTCGATCTTTATATTTAATAAAAC [CACACA_negctrl_site781] | 6.08
13 | AATATTTATGTGAAGACACACAACTGTTTATTATAT [CACACA_site3447] | 6.42
14 | TTACAACAGAATGGTATTTTTTTATTTTAAAGAAAA [TGCATGCA_negctrl_site230] | 5.77
15 | ATCCTACTATGTTATACACACAATTACTTTTTTCTC [CACACA_site3712] | 7.42
16 | ATATGTAAAACTTCAAAAAAATATATTTTATGACGA [GTGCAC_negctrl_site324] | 6.41
17 | ATATATAAAATATACACACATACTGTTCATTTAAAG [CACACA_site4169] | 6.67
18 | TACTACTATCTATATTGTACAAAAGGTGCCTACAAA [XGTACX_site4267] | 6.69
19 | ATTTATATATCGCCCACACACATGTGATTATTTATA [CACACA_site6905] | 7
20 | AAAAAAAATTATATATGTACTTATTAATCCTTATAT [XGTACX_site1389] | 6.02
21 | TATTTCAAAAAAAAAAAAAATAAAAAACAACAACAA [CACACA_negctrl_site893] | 6.8
22 | TACAAGTTTTTAAAGTGTACCAAAAAAAAAGAATAA [XGTACX_site979] | 6.49

Row | Sequence | gcPBM binding intensity (ln)
23 | TCTATTCAAAATAAAAGTACTAGCATGTGAATTGTT [XGTACX_site5530] | 6.56
24 | TTCATTTATTTACTTACACACTTTATATATGTGGTT [CACACA_site4901] | 6.88
25 | AGTTCTTCGTACCAAAAAACGGCACGCATATGTATA [TGCATGCA_negctrl_site469] | 5.96
26 | TGTATTCATACATGCACACGTACATATTTAAATATA [CACACA_site3926] | 8.39
27 | AATTATATTCTATTCACACATATTCCAACCTCTTTT [CACACA_site4670] | 6.65
28 | TGTATGTTGTAAAATTGTACATATATATTATATTTA [XGTACX_site4883] | 6.45
29 | ATGAATATAATAAAGAAACACACGTATACATAATGA [CACACA_site1355] | 6.79
30 | AAAAGATAATTATGCACACACACACCCAGACACAAC [CACACA_site5428] | 10.4
31 | TTTGATGGTACACGTACACACCTTGCAAATATTTTT [CACACA_site4645] | 7.13
32 | TGAAAGAACCTGATTACACACATAAATTATATATAT [CACACA_site26] | 6.49
33 | TATTTATTGTGATACTTATATTATTTTATGATTAAA [CACACA_negctrl_site901] | 6.27
34 | AGAGAGATGACAAAAAGATGAATAACGTTAAGGGAT [XGTACX_negctrl_site120] | 7.4
35 | ATGGAAATATATACATGTACATAAATATATATATAT [XGTACX_site8391] | 8.78
36 | AGTAGTCTGGAGAAGAGTACATAGTATCTGGTAACC [XGTACX_site2043] | 6.29
37 | ATGTTTTGCATATATTATATATTTATTTATTTTTTT [CACACA_negctrl_site729] | 7.36
38 | AGTGGACTTTTTTTTTTTTTTTTTTTTTTTTTATTA [CACACA_negctrl_site547] | 5.88
39 | GATATAATTATATTATGGTGTTTTTGATAGATATTT [GTGCAC_negctrl_site313] | 6.42
40 | AGTATATACACGTGCGTGCACAGATATTCTTTTTTT [GTGCAC_site9398] | 9.58
41 | TATTTTAAAGAGAAAACATGCATTATATAGAACATT [TGCATGCA_site328] | 6.67
42 | ATCAAACCATAAAAGAGTACAAAAGGATGATATTTT [XGTACX_site8883] | 6.59
43 | TGTATATTTTTTATTACACACTTTTTACTTTTTAGA [CACACA_site3069] | 6.46
44 | TTTTTTAATTGTGATACGTATATTATTTAATGATAA [GTGCAC_negctrl_site704] | 6.41
